Source: the RNAGym collection of RNA variant scans (doi:10.7554/elife.90254)
Read counts are not given, so values of variants with three or more changes are uncertain.

B1: LINE1-mini (parent)
chain: GGCAGAGCUCAACACAGCGUGGCAAAGUGGCUGUGGCUAGACUGCC

Variants of: B1
Assay: self-cleavage, relative activity (ratio to wild type); higher = more cleavage; in vitro, sequencing; the parent is a self-cleaving ribozyme

Variant	self-cleavage
GGCAGAGCUCAACACACCGUGCCAUAGUGGCUGUGACUAGACUGCC [G17C G22C A25U G36A]	0.07
GGCAGAGCUCAACACACCGUGCCAAAGUGGCUGUGGCUAGACUGCA [G17C G22C C46A]	0.31
GGCAGAGCUCAACACACCGUGGCAAAAUGGAUGUGGCUAUACUGCC [G17C G27A C31A G40U]	0.04
GGCAGAGCUCAACACACCGUGGCAAACUGGCUGUGGAUAGGCUGCC [G17C G27C C37A A41G]	0.01
GGCAGAGCUCAACACACCGUGGCAAAUUGUCUGUGGCGAGACUGCC [G17C G27U G30U U38G]	0.02
GGCAGAGCUCAACACACCGUGGCAAAUUGGCUGUGUCUCGACUGCC [G17C G27U G36U A39C]	0.05
GGCAGAGCUCAACACACCGUGGCAAAGUCUCUGUGGCUAGACUUCC [G17C G29C G30U G44U]	0.02
GGCAGAGCUCAACACACCGUGGCAAAGUCGCUGGGGUUAGACUGCC [G17C G29C U34G C37U]	0
GGCAGAGCUCAACACACCGUGGCAAAGUGUCUGUGGCUAUAUUGCC [G17C G30U G40U C42U]	0.1
GGCAGAGCUCAACACACCGUGGCAAAGUGUCUGUGGCAAGACUGCC [G17C G30U U38A]	0.07
GGCAGAGCUCAACACACCGUGGCAAAGUGGCUUUGGCUAGACUUCC [G17C G33U G44U]	0.07
GGCAGAGCUCAACACACCGUGGCAAAGUGGCUGUAGCUCGACUCCC [G17C G35A A39C G44C]	0.02
GGCAGAGCUCAACACACCGUGGCAAAGUGGCUGUUGAUAGACUGCC [G17C G35U C37A]	0.05
GGCAGAGCUCAACACACCGUGGCAAAGUGGCUGUUGCUAGAAUGCC [G17C G35U C42A]	0.03
GGCAGAGCUCAACACACCGUGGCAAAGUGGCUGUGACUAAACUGCC [G17C G36A G40A]	0.14
GGCAGAGCUCAACACACCGCGGCAACGUGCCUGUGGAUAGACUGCC [G17C U20C A26C G30C C37A]	0.02
GGCAGAGCUCAACACACCGCGGCAAAGUUGUUGUGGCAAGACUGCC [G17C U20C G29U C31U U38A]	0.17
GGCAGAGCUCAACACACCGGGGCAAAGUGGCUGUGGCUAAACUGCC [G17C U20G G40A]	0.01
GGCAGAGCUCAACACACCGUGGCAAAGGGGCUGUCGCUAGACUGCC [G17C U28G G35C]	0.05

Variant	self-cleavage
GGCAGAGCUCAACACACCGUGGCAAAGUGGCCGUGACUAAACUGCC [G17C U32C G36A G40A]	0.08
GGCAGAGCUCAACACACCGUGGCAAAGUGGCUGCUGCAAGUCUGCC [G17C U34C G35U U38A A41U]	0.03
GGCAGAGCUCAACACAUCGUGGCCAAGUCGCUGUGGCUAGACUGCC [G17U A24C G29C]	0.04
GGCAGAGCUCAACACAUCGUGGCCAAGUGGCCGUGGCUAGACUGCC [G17U A24C U32C]	0.1
GGCAGAGCUCAACACAUCGUGGCGAAGUGGGUGUGGCUAGACUGCC [G17U A24G C31G]	0.46
GGCAGAGCUCAACACAUCGUGGCUAAAUGGCUGUGGCUAGACUGCC [G17U A24U G27A]	0.21
GGCAGAGCUCAACACAUCGUGGCAGAGUGGCUGUUGCUAGACUGCC [G17U A25G G35U]	0.02
GGCAGAGCUCAACACAUCGUGGCAACGUGGCUGUGGCUAGACAGCC [G17U A26C U43A]	0.22
GGCAGAGCUCAACACAUCGUGGCAAUGUGGCUGUGGCUAGACUGGC [G17U A26U C45G]	0.05
GGCAGAGCUCAACACAUCGUGGCAAUGUGCCUGUGGCUAGACUGCC [G17U A26U G30C]	0.84
GGCAGAGCUCAACACAUCGUGGCAAAGUGGCUGUGGCUCAAGUGCC [G17U A39C G40A C42G]	0.22
GGCAGAGCUCAACACAUCGUGGCAAAGUGGCUGUGGCUGGACUACC [G17U A39G G44A]	0
GGCAGAGCUCAACACAUCGUGGCAAAGUGGCUGUGGCUAGUGUGCC [G17U A41U C42G]	0.08
GGCAGAGCUCAACACAUAGUGGCAACGUGGCUGUGGCUAGACUGCC [G17U C18A A26C]	0.47
GGCAGAGCUCAACACAUAGUGGAAAAGUGGGUGUGGCUAGACUGCC [G17U C18A C23A C31G]	0.3
GGCAGAGCUCAACACAUAGUGGCAAAGUGACUGUGGCUAGACUGCC [G17U C18A G30A]	0.33
GGCAGAGCUCAACACAUAGUGGCAAAGAGGCUGUGGCUAGACUGCC [G17U C18A U28A]	0.09
GGCAGAGCUCAACACAUGGUGGCAAAGUGGCUAUGGCUAGAGUUCC [G17U C18G G33A C42G G44U]	0.05
GGCAGAGCUCAACACAUUGUGGCACAGUGGCUGUGGCUAGACUGCC [G17U C18U A25C]	0.07

Variant	self-cleavage
GGCAGAGCUCAACACAUUGUGGCAAAGUGGCUGUGGCUAGGCUGCC [G17U C18U A41G]	0.01
GGCAGAGCUCAACACAUUGUGGUAAAGUCGCUGUGGCUAGAUUGCC [G17U C18U C23U G29C C42U]	0.05
GGCAGAGCUCAACACAUUGUGGCAAAGUGGCUGUGGCUAGACCGCC [G17U C18U U43C]	0.13
GGCAGAGCUCAACACAUCGUGGGAAAGUCGCUGUGGCUAGACUGCC [G17U C23G G29C]	0.89
GGCAGAGCUCAACACAUCGUGGUGAAGUGGCUGUGGCUAGACUGCC [G17U C23U A24G]	0.03
GGCAGAGCUCAACACAUCGUGGCAAAGUGGAUGUGGCUAUCCUGCC [G17U C31A G40U A41C]	0.13
GGCAGAGCUCAACACAUCGUGGCAAAGUGGGUGUGGCUAGAAUGCC [G17U C31G C42A]	0.08
GGCAGAGCUCAACACAUCGUGGCAAAGUGGGUGUGGCCAGACUGCC [G17U C31G U38C]	0.26
GGCAGAGCUCAACACAUCGUGGCAAAGUGGUUGUGGAUACACUGCC [G17U C31U C37A G40C]	0.03
GGCAGAGCUCAACACAUCGUGGCAAAGUGGUUGUGGCUAGACUGUC [G17U C31U C45U]	0.17
GGCAGAGCUCAACACAUCGUGGCAAAGUGGUUGUGGCCAGAUUGCC [G17U C31U U38C C42U]	0.02
GGCAGAGCUCAACACAUCGUGGCAAAGUGGCUGUGGGUAGAGUGCC [G17U C37G C42G]	0.01
GGCAGAGCUCAACACAUCGUGGCAAAGUGGCUGUGGGUAGACUACC [G17U C37G G44A]	0.17
GGCAGAGCUCAACACAUCGUGGCAAAGUGGCUGUGGCUAGAGUGAC [G17U C42G C45A]	0.02
GGCAGAGCUCAACACAUCAUGGCAAUGUGUCUGUAGCUAGACUGCC [G17U G19A A26U G30U G35A]	0.02
GGCAGAGCUCAACACAUCAUGGCAAAAUGGCUGAGGCUAGCCUGCC [G17U G19A G27A U34A A41C]	0.02
GGCAGAGCUCAACACAUCCUGGCAAAAUGGCUGUGGCUAGACUGCC [G17U G19C G27A]	1.95
GGCAGAGCUCAACACAUCCUGGCAAAGUCGUUGUGGCUAGACUGAC [G17U G19C G29C C31U C45A]	0.02
